Laboratory results: a collection of fitness landscapes (doi:10.1126/science.1257360)
This is one part of the list.

B1: PhoQ; a variant is named by its letters at X, in order, P23837 (parent)
chain: MKKLLRLFFPLSLRVRFLLATAAVVLVLSLAYGMVALIGYSVSFDKTTFRLLRGESNLFYTLAKWENNKLHVELPENIDKQSPTMTLIYDENGQLLWAQRDVPWLMKMIQPDWLKSNGFHEIEADVNDTSLLLSGDHSIQQQLQEVREDDDDAEMTHSVAVNVYPATSRMPKLTIVVVDTIPVELKSSYMVWSWFIYVLSANLLLVIPLLWVAAWWSLRPIEALAKEVRELEEHNRELLNPATTRELTSLVRNLNRLLKSERERYDKYRTTLTDLTHSLKTPLXXLQXXLRSLRSEKMSVSDAEPVMLEQISRISQQIGYYLHRASMRGGTLLSRELHPVAPLLDNLTSALNKVYQRKGVNISLDISPEISFVGEQNDFVEVMGNVLDNACKYCLEFVEISARQTDEHLYIVVEDDGPGIPLSKREVIFDRGQRVDTLRPGQGVGLAVAREITEQYEGKIVAGESMLGGARMEVIFGRQHSAPKDE

Variants of: B1
Assay: enrichment ratio after two sorts for PhoP signalling (ratio (wild type AVST 3.29)); higher = more functional
Conditions: with PhoP (E. coli)

Variant | enrichment ratio
TCMC | 24.2
YSYP | ≤ 0.25
MHQG | ≤ 0.25
LIFI | ≤ 0.25
YAMP | ≤ 0.25
WVWL | ≤ 0.25
AYRL | ≤ 0.25
LYKW | ≤ 0.25
YGQL | ≤ 0.25
EILN | ≤ 0.25
MCFQ | 1.15
THMF | 9.68
DVYS | ≤ 0.25
GSTW | ≤ 0.25
WFSK | ≤ 0.25
KYSF | ≤ 0.25
HITK | ≤ 0.25
LVNA | ≤ 0.25
SQKI | ≤ 0.25
EEGT | ≤ 0.25
AEIC | 4.13
FAAP | ≤ 0.25
LYLN | ≤ 0.25
YTIS | ≤ 0.25

Variant | enrichment ratio
AAWF | ≤ 0.25
VHPL | ≤ 0.25
FWSW | ≤ 0.25
TKTC | 3.73
ERHH | ≤ 0.25
LLNQ | ≤ 0.25
RIVM | ≤ 0.25
MDFG | ≤ 0.25
MGAV | 5.2
HPCY | ≤ 0.25
QYIR | ≤ 0.25
ADHG | ≤ 0.25
ANAM | 32.2
NFAG | ≤ 0.25
QVCL | ≤ 0.25
WEDY | ≤ 0.25
DGIG | ≤ 0.25
GYSC | ≤ 0.25
VEGH | ≤ 0.25
DDKC | ≤ 0.25
KVKY | ≤ 0.25
SHLR | ≤ 0.25
HHST | ≤ 0.25
LRRY | ≤ 0.25

Variant | enrichment ratio
DAGS | ≤ 0.25
RCYR | ≤ 0.25
IYGG | ≤ 0.25
AQGQ | 7
NWWI | ≤ 0.25
ELIW | ≤ 0.25
WKKP | ≤ 0.25
FDEM | ≤ 0.25
PRVQ | ≤ 0.25
KKHS | ≤ 0.25
ISGQ | ≤ 0.25
NIHY | ≤ 0.25
TMSY | 2.27
VFNQ | ≤ 0.25
RFTF | ≤ 0.25
AHVS | ≤ 0.25
HHVM | ≤ 0.25
LGVC | ≤ 0.25
PFSQ | ≤ 0.25
VEGE | ≤ 0.25
RYNC | ≤ 0.25
PRDE | ≤ 0.25
TPNW | ≤ 0.25
RKTV | ≤ 0.25

Variant | enrichment ratio
LKSV | 0.61
MSYW | ≤ 0.25
GFPR | ≤ 0.25
WVTP | ≤ 0.25
FVRY | ≤ 0.25
KEFE | ≤ 0.25
QRVP | ≤ 0.25
LVMR | ≤ 0.25
KVCA | ≤ 0.25
HKAL | 0.299
RMIS | ≤ 0.25
FFNH | ≤ 0.25
HGQL | ≤ 0.25
KVHQ | ≤ 0.25
HMHK | ≤ 0.25
YAIV | ≤ 0.25
NLYE | ≤ 0.25
MMHQ | ≤ 0.25
MFRA | ≤ 0.25
HRHG | ≤ 0.25
NLFC | ≤ 0.25
ILTS | ≤ 0.25
VCDG | ≤ 0.25
QKTI | ≤ 0.25

Variant | enrichment ratio
EDYH | ≤ 0.25
NIWW | ≤ 0.25
TDPD | ≤ 0.25
NHSY | ≤ 0.25
VDWY | ≤ 0.25
NLQN | ≤ 0.25
VAAM | 2.25
MGIS | ≤ 0.25
NLLR | ≤ 0.25
VDTQ | ≤ 0.25
PWMA | ≤ 0.25
DICD | ≤ 0.25
IKLK | ≤ 0.25
QIYD | ≤ 0.25
HTRF | ≤ 0.25
QPKL | ≤ 0.25
SIWQ | 6.53
WRCW | ≤ 0.25
NNNQ | ≤ 0.25
LMLD | 0.416
PYGQ | ≤ 0.25
WGFQ | ≤ 0.25
QLRR | ≤ 0.25
KSYF | ≤ 0.25

Variant | enrichment ratio
NSFA | ≤ 0.25
FEAG | 1.46
MKTI | ≤ 0.25
VGGF | ≤ 0.25
GKPE | ≤ 0.25
FVQP | ≤ 0.25
DTLF | ≤ 0.25
DVIA | ≤ 0.25
MPQH | ≤ 0.25
FYDE | ≤ 0.25
NCWF | ≤ 0.25
FVPY | ≤ 0.25
ITVI | ≤ 0.25
PDCA | ≤ 0.25
IDPQ | ≤ 0.25
GFHP | ≤ 0.25
MTST | ≤ 0.25
NQGR | ≤ 0.25
IRPI | ≤ 0.25
TEML | 28.6
QPRP | ≤ 0.25
YFAH | ≤ 0.25
RVQA | ≤ 0.25
DVQG | ≤ 0.25

Variant | enrichment ratio
AICP | ≤ 0.25
NFKI | ≤ 0.25
LWKN | ≤ 0.25
HCTP | ≤ 0.25
RTTI | ≤ 0.25
PMYW | ≤ 0.25
EGQA | ≤ 0.25
NYTF | ≤ 0.25
VWLP | ≤ 0.25
SILA | 16.9
FVWM | ≤ 0.25
WCHL | ≤ 0.25
FLLS | ≤ 0.25
VYIT | ≤ 0.25
SQNF | ≤ 0.25
RQTM | ≤ 0.25
HGSI | 0.812
LHGH | ≤ 0.25
AETH | 0.824
MMKV | ≤ 0.25
LSSC | ≤ 0.25
IQHY | ≤ 0.25
TYTH | ≤ 0.25
FHPE | ≤ 0.25

Variant | enrichment ratio
NDGT | ≤ 0.25
FNNF | 0.347
FAPD | ≤ 0.25
YDEH | ≤ 0.25
KLPF | ≤ 0.25
VNDC | ≤ 0.25
PTFD | ≤ 0.25
LDEH | ≤ 0.25
YQQG | ≤ 0.25
RRSS | ≤ 0.25
TQIC | 8.58
DRDQ | ≤ 0.25
AKSR | ≤ 0.25
YGHC | ≤ 0.25
TKFQ | 3.42
TFSG | 13.9
FHVI | ≤ 0.25
HTRK | ≤ 0.25
NGGE | ≤ 0.25
HEAT | ≤ 0.25
ALTC | 0.959
EQQC | ≤ 0.25
HKRC | ≤ 0.25
SGTA | 7.55

Variant | enrichment ratio
DVPQ | ≤ 0.25
LKTF | ≤ 0.25
FKYQ | ≤ 0.25
WKIA | ≤ 0.25
HKSM | ≤ 0.25
LMKW | ≤ 0.25
VYPE | ≤ 0.25
LHQW | ≤ 0.25
IIHT | ≤ 0.25
LPGI | ≤ 0.25
YFDL | ≤ 0.25
LEMN | ≤ 0.25
GTNP | ≤ 0.25
SLIG | ≤ 0.25
GFWC | ≤ 0.25
SWWQ | ≤ 0.25
ANMV | 19.1
EVPN | ≤ 0.25
HYLP | ≤ 0.25
RDSH | ≤ 0.25
VMWY | ≤ 0.25
TNGS | 7.8
KRIC | ≤ 0.25
HTTI | ≤ 0.25

Variant | enrichment ratio
NIYQ | ≤ 0.25
MSEQ | ≤ 0.25
VEGR | ≤ 0.25
EQTY | ≤ 0.25
VMEI | ≤ 0.25
KWPL | ≤ 0.25
WRKI | ≤ 0.25
MSNE | ≤ 0.25
FLQW | ≤ 0.25
ATQP | ≤ 0.25
PRKY | ≤ 0.25
HMMY | ≤ 0.25
LLRH | ≤ 0.25
TFRI | ≤ 0.25
EDEV | ≤ 0.25
NTKH | ≤ 0.25
ENPR | ≤ 0.25
KMAM | ≤ 0.25
CFCY | ≤ 0.25
KDWL | ≤ 0.25
NITK | ≤ 0.25
WWRW | ≤ 0.25
KKTD | ≤ 0.25
PFRH | ≤ 0.25

Variant | enrichment ratio
LQDL | ≤ 0.25
DLGL | ≤ 0.25
HHEH | ≤ 0.25
WYSC | ≤ 0.25
IRVT | ≤ 0.25
DDYQ | ≤ 0.25
LRGI | ≤ 0.25
MYTG | ≤ 0.25
RHMV | ≤ 0.25
WSDC | ≤ 0.25
VMCE | ≤ 0.25
HTKH | ≤ 0.25
PLEM | ≤ 0.25
RKDT | ≤ 0.25
FNRK | ≤ 0.25
WGCG | ≤ 0.25
FIER | ≤ 0.25
SWCL | ≤ 0.25
VNSF | ≤ 0.25
FCAI | ≤ 0.25
PFGM | ≤ 0.25
HYAN | ≤ 0.25
ASPC | ≤ 0.25
PLPY | ≤ 0.25

Variant | enrichment ratio
EMQH | ≤ 0.25
ECDL | ≤ 0.25
QIAI | 2.26
WPGH | ≤ 0.25
IKQA | ≤ 0.25
AKYS | ≤ 0.25
SPTT | ≤ 0.25
SFHE | ≤ 0.25
PQWE | ≤ 0.25
NGDP | ≤ 0.25
TVHD | ≤ 0.25
HETE | ≤ 0.25
MEPF | ≤ 0.25
FMHD | ≤ 0.25
IMMA | ≤ 0.25
DPHI | ≤ 0.25
PDGQ | ≤ 0.25
QPHM | ≤ 0.25
NDVV | ≤ 0.25
VKPM | ≤ 0.25
LSAE | ≤ 0.25
YRKW | ≤ 0.25
TRIC | ≤ 0.25
DEWV | ≤ 0.25

Variant | enrichment ratio
GCGA | ≤ 0.25
IMGE | ≤ 0.25
MIWI | 3.74
CNWS | ≤ 0.25
ERAS | ≤ 0.25
IIHY | ≤ 0.25
PCTG | ≤ 0.25
TGSM | 23.5
GSYD | ≤ 0.25
LYRK | ≤ 0.25
PFDG | ≤ 0.25
LPVM | ≤ 0.25
IQIT | ≤ 0.25
HYGY | ≤ 0.25
LQMA | ≤ 0.25
PFEA | ≤ 0.25
SMPT | ≤ 0.25
GTHG | ≤ 0.25
